Values joined by “and” are separate entries in the source; they are usually repeats but may differ in a detail not shown here. Equal values may be shown once. About 960 (0.37%) of roughly 260,000 compounds were called active. The inconclusive results got no clear call from the source; some entries with a clear call stand among them for comparison.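 Rule for the calls: active = mean E-selectin-positive cell signal at least 10% of the positive control, reached in at least 60% of replicates, without over 20% cell loss; inconclusive = no rule given, readout overlaps actives, possibly toxicity-flagged; inactive = the rest, including those meeting only one limit.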
Target: E-selectin (Homo sapiens) (UniProt P16581)
Assay: inducers of endothelial E-selectin expression – imaging, HUVEC, immunofluorescence imaging, single point, primary screen (AID 686992);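 note: signal is the percent of cells scored E-selectin positive by PE staining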
Conditions: at 7.58 µM, hits give high values, normalized: neutral wells 0, TNF-alpha wells 100
Summary of the method: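 Read-out: % PE-positive cells | Test system: HUVEC | Doses: One compound dose added by pin transfer | Buffer or medium: EGM-2 over gelatin coat | Signal: Immunofluorescence imaging | Benchmarks: TNF-alpha, DMSO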

UniProt P16581, sequence (P16581 whole entry, looked up): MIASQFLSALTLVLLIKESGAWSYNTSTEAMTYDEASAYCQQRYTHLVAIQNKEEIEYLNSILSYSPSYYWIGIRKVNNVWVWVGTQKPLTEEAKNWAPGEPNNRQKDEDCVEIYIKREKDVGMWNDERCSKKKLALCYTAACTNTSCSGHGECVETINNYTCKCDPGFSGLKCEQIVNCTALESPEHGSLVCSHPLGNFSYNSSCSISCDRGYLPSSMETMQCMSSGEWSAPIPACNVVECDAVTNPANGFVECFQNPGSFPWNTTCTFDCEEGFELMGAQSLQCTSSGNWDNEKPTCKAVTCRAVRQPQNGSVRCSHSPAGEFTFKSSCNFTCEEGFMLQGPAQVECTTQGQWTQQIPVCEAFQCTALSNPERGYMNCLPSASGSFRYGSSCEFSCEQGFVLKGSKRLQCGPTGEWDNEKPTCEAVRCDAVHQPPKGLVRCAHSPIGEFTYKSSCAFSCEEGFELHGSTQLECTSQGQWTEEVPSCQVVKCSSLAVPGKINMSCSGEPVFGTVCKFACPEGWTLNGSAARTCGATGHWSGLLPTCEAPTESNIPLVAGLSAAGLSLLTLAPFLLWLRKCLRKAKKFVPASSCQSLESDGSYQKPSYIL

| Structure (SMILES) | activation |
| --- | --- |
| COc1cc(C(=O)Nc2ccc3c(c2)Cc2cc(NC(=O)c4cc(OC)c(OC)c(OC)c4)ccc2-3)cc(OC)c1OC | inconclusive: 92.5% |
| C[C@H]1CN([C@@H](C)CO)S(=O)(=O)c2ccc(C3=CCCC3)cc2O[C@H]1CN(C)C(=O)CC1CC1 | inactive: 5.13% |
| CCc1c(C)nc(N2CCN(c3ccccc3F)CC2)[nH]c1=O | inconclusive: 48.6% |
| CN(C)S(=O)(=O)c1ccc(C(=O)N(c2ccccn2)c2ccccn2)cc1 | inconclusive: 33.4% |
| CS(=O)(=O)NCCCNc1ccc(C(F)(F)F)cc1[N+](=O)[O-] | inconclusive: 45.5% |
| C[C@@H]1CN([C@H](C)CO)C(=O)Cc2cc(NC(=O)CCCCCC(=O)Nc3ccccc3N)ccc2O[C@H]1CN(C)C(=O)Nc1ccc2c(c1)OCO2 | inconclusive: 154% |
| COCC#Cc1ccc2c(c1)O[C@@H](CN(C)S(=O)(=O)c1ccc(C)cc1)[C@@H](C)CN([C@H](C)CO)S2(=O)=O | inconclusive: 52.4% |
| CCCCNC(=O)C1CCC(CNc2nc(=S)[nH]c3ccccc23)CC1 (stereo unspecified) | inconclusive: 49.6% |
| COc1ccc(C(C)(C)C)cc1S(=O)(=O)NCC1CCCO1 (stereo unspecified) | inactive: -0.146% |
| CC1=C(C(=O)N(C(C)C)C(C)C)CC(CC(=O)NC2CCCCC2)C(=O)N1Cc1ccc(F)cc1 (stereo unspecified) | inconclusive: 63.4% |
| C[C@H](CO)N1C[C@H](C)[C@@H](CN(C)S(=O)(=O)c2cn(C)cn2)Oc2ccc(N(C)C)cc2C1=O | active: 33.3% |
| COc1ccc(NC(=O)N(C)C[C@H]2Oc3c(NS(=O)(=O)c4cn(C)cn4)cccc3C(=O)N([C@H](C)CO)C[C@H]2C)cc1 | inconclusive: 45.5% |
| C[C@@H]1CN([C@H](C)CO)C(=O)c2cc(N(C)C)ccc2O[C@H]1CN(C)S(=O)(=O)c1cn(C)cn1 | active: 62.7% |
| CCC(=O)NNc1ncnc2c1cnn2C | inconclusive: 60.4% |
| CC(=O)N1CCN(c2ccccc2NC(=O)Cc2ccc(Cl)cc2)CC1 | inconclusive: 47.8% |
| C[C@@H]1CN([C@H](C)CO)C(=O)c2cccc(NC(=O)NC3CCCCC3)c2O[C@H]1CN(C)Cc1ccc(-c2ccccc2)cc1 | inconclusive: 30.2% |
| O=C(COC(=O)c1cc(=O)[nH]c2ccccc12)NCCc1ccccc1 | inconclusive: 64.2% |
| CO[C@H]1CN(C)C(=O)c2ccc(NC(=O)C3CC3)cc2OC[C@H](C)N(Cc2cccc(F)c2)C[C@@H]1C | inactive: -0.393% |
| CCCCCNc1nc2sc3c(c2c(=O)n1-c1cccc(Cl)c1)CCN(C)C3 | active: 41.6% |
| C/C=C/c1ccc2c(c1)O[C@@H](CN(C)C(=O)NCCC)[C@@H](C)CN([C@@H](C)CO)S2(=O)=O | inactive: -0.021% |
| Cc1noc(C)c1NC(=O)Nc1ccc2c(c1)C(=O)N([C@H](C)CO)C[C@H](C)[C@@H](CN(C)S(=O)(=O)c1ccc(F)cc1)O2 | inactive: -0.077% and inactive: -0.0275% |
| CN(c1ccccc1)S(=O)(=O)c1cccc(C(=O)Nc2nn[nH]n2)c1 | inconclusive: 69.8% |
| CC(C)(C)OC(=O)C[C@H]1C/C=C\C[C@@H](CC(=O)NCCO)C(=O)N2CCC[C@H]2COC1=O | inactive: -0.315% |
| C[C@@H]1CCCCO[C@@H](CN(C)C(=O)Nc2ccc(C(F)(F)F)cc2)[C@@H](C)CN([C@H](C)CO)C(=O)c2cc(NC(=O)Nc3ccc(C(F)(F)F)cc3)ccc2O1 | inactive: -0.221% |

| Structure (SMILES) | activation |
| --- | --- |
| Oc1cc2c(cc1O)CN(C(=S)NCCc1ccc(Cl)cc1)CCC2 | inconclusive: 64.7% |
| CC(C)(C)c1ccc(C(=O)Nc2ccc3c(c2)C(=O)NC3=O)cc1 | active: 137% |
| C[C@H]1CN([C@@H](C)CO)C(=O)c2cccc(NC(=O)c3ccc(-c4nccs4)cc3)c2O[C@@H]1CN(C)Cc1ccc(Cl)c(Cl)c1 | active: 304% |
| COCCCNC(=O)C1CCC(CNS(=O)(=O)c2ccc(Cl)cc2)CC1 (stereo unspecified) | inconclusive: 29.9% |
| Cc1ccc(S(=O)(=O)Nc2cc(-c3ccccc3)nn2C)cc1Cl | active: 53.1% |
| CCC(CC)C(=O)Nc1ccc(-c2cn3cccnc3n2)cc1 | inconclusive: 33.2% |
| C[C@H](CO)N1C[C@H](C)[C@@H](CN(C)C(=O)c2cc(-c3ccccc3)on2)OCc2cnnn2CCCC1=O | inconclusive: 89.9% |
| COc1ccc(OCCN2CCN(S(=O)(=O)c3ccccc3C(F)(F)F)CC2)cc1 | active: 139% |
| C[C@@H]1CN([C@@H](C)CO)C(=O)c2cc(NS(=O)(=O)c3cn(C)cn3)ccc2O[C@H]1CN(C)C(=O)Nc1ccc(F)cc1 | active: 86.5% |
| Cc1cccc(-c2ncc(CN3CCCC(CO)(Cc4cccc(Cl)c4)C3)cn2)c1 (stereo unspecified) | inconclusive: 32.7% |
| CCCNC(=O)N1CC2(CN(Cc3cccc(OC)c3)C2)c2c([nH]c3cc(OC)ccc23)[C@@H]1CO | inactive: -0.576% |
| C[C@@H]1CN([C@H](C)CO)C(=O)Cc2cc(NC(=O)Nc3ccc(F)cc3)ccc2O[C@H]1CN(C)C(=O)Nc1ccc(C(F)(F)F)cc1 | inconclusive: 54.6% |
| CO[C@@H]1CN(C)C(=O)c2cc(NC(=O)C3CCOCC3)ccc2OC[C@@H](C)N(CC2CC2)C[C@H]1C | inconclusive: 43.2% |
| Cc1ccc(N(C(C)C(=O)O)S(=O)(=O)c2c(C)[nH]c(=O)[nH]c2=O)cc1 (stereo unspecified) | inconclusive: 63.8% |
| Cc1ccc(/C=C/C(=O)O)cc1S(=O)(=O)N1CCC(Cc2ccccc2)CC1 | inconclusive: 47.6% |
| CNC(=O)NC(=O)C(C)OC(=O)c1cc2c(s1)CCCCC2 (stereo unspecified) | inconclusive: 54% |
| COc1ccc(OC)c(NC(=O)c2ccc(CSc3ncccn3)cc2)c1 | inconclusive: 204% |
| C[C@@H]1CN([C@H](C)CO)C(=O)c2cc(-c3ccccc3F)cnc2O[C@H]1CN(C)C | inconclusive: 53.8% |
| Cc1ccnc(NS(=O)(=O)c2ccc(NC(=O)c3ccc(Br)o3)cc2)n1 | inconclusive: 43.6% |
| Cc1noc(C)c1S(=O)(=O)N(C)C[C@H]1Oc2ccc(NC(=O)C3CC3)cc2CC(=O)N([C@@H](C)CO)C[C@@H]1C | inconclusive: 80.8% |
| Cc1ccc(Nc2ncc3c(n2)CC(C)(C)CC3=O)cc1 | inconclusive: 31.5% |
| COC(=O)c1ccc2nc(-c3cccc(Cl)c3)c(Cc3cccc(F)c3)n2c1 | inactive: 0.924% |
| C[C@@H]1CN([C@H](C)CO)C(=O)Cc2cc(NS(=O)(=O)c3cccs3)ccc2O[C@H]1CN(C)Cc1ccc(-c2ccccc2)cc1 | inactive: 0.17% |
| O=C(COC(=O)CCc1nc2ccccc2c(=O)[nH]1)NC(=O)NC1CCCC1 | inconclusive: 66.8% |

| Structure (SMILES) | activation |
| --- | --- |
| Nc1ccc(S(=O)(=O)Nc2cnc3ccccc3n2)cc1 | inconclusive: 63% |
| CCCC[C@@H](CNC)NC[C@H](NCCCCC1CCCCC1)C(C)C | inconclusive: 27.7% |
| C[C@H]1CN([C@@H](C)CO)C(=O)c2cc(NC(=O)Cn3cnnn3)ccc2O[C@H]1CN(C)Cc1ccc(Oc2ccccc2)cc1 | active: 139% |
| Cc1ccc(S(=O)(=O)N(C)C[C@H]2OCCCC[C@@H](C)Oc3ccc(NC(=O)c4ccncc4)cc3C(=O)N([C@H](C)CO)C[C@@H]2C)cc1 | inconclusive: 27.4% |
| COc1cccc(C(=O)C(=O)c2cccc(OC)c2OC)c1OC | inconclusive: 42.9% |
| Cc1nnc2ccc(-c3cccc(NC(=O)c4ccc(Br)o4)c3)nn12 | inconclusive: 28.7% |
| COc1ccc(S(=O)(=O)Nc2ccc3c(c2)C(=O)N([C@@H](C)CO)C[C@H](C)[C@@H](CN(C)Cc2ccc(Cl)c(Cl)c2)O3)cc1 | active: 80% |
| COC(=O)c1cccc(NC(=S)Nc2ccccc2Cl)c1 | inactive: 0.009% |
| COC(CN(C)C(=O)c1ccc(CS(=O)(=O)c2ccccc2C)o1)OC | active: 48.8% |
| CCOC(=O)c1cc(-c2csc(COc3ccc(Cl)cc3)n2)on1 | inconclusive: 41.7% |
| COC(=O)Cc1ccc(OC(=O)CCS(=O)(=O)c2ccc(C)cc2)cc1 | inconclusive: 29% |
| O=C(CSC(=S)N1CCOCC1)Nc1ccc(S(=O)(=O)Nc2ncccn2)cc1 | inconclusive: 34% |
| C[C@@H]1CN([C@@H](C)CO)C(=O)Cc2cc(NS(=O)(=O)c3ccc(Cl)cc3)ccc2O[C@@H]1CN(C)CC1CCCCC1 | inactive: 18.8% |
| Cn1c(CNS(=O)(=O)c2ccc(F)cc2)n[nH]c1=S | inconclusive: 61.1% |
| CC(c1ccccc1)N(C)C(=O)CSc1nnc(C2CC2)n1C1CC1 (stereo unspecified) | inconclusive: 70.1% |
| CN(C)c1ccc(/C=C/C=N/Nc2nc(N3CCOCC3)nc(N3CCOCC3)n2)cc1 | active: 63% |
| COc1ccccc1-n1nnnc1SCC(=O)N(C)C1CCS(=O)(=O)C1 (stereo unspecified) | inconclusive: 76% |
| O=S(=O)(N[C@@H]1CC[C@@H](CCn2cc(-c3cccnc3)nn2)O[C@@H]1CO)c1ccccc1 | inactive: -0.768% |
| COc1ccc(NS(=O)(=O)c2ccc3c(c2)CCCN3C(C)=O)cc1 | active: 121% |
| C[C@@H]1CN([C@@H](C)CO)C(=O)Cc2cc(NS(=O)(=O)c3ccc(Cl)cc3)ccc2O[C@@H]1CN(C)C(=O)Nc1ccc2c(c1)OCO2 | inactive: 0.255% |
| CN1C(=O)c2cc(NC(=O)Cc3cccs3)ccc2OC[C@@H]2O[C@H](CC(=O)NCC3CC3)CC[C@H]21 | inactive: 0.232% |
| COc1ccc(NC(=O)c2cc(C)nn2-c2ccccc2)cc1 | inconclusive: 42.2% |
| CC(C)NC(=O)N(C)C[C@@H]1Oc2ccc(NS(=O)(=O)c3cccs3)cc2CC(=O)N([C@@H](C)CO)C[C@H]1C | active: 28.5% |

From PubChem BioAssay AID686992 (Broad Institute, 2013)
